In PMC9834408, “The SPOC domain is a phosphoserine binding module that bridges transcription machinery with co- and post-transcriptional regulators” (Nature Communications, 2023):
These are yes or no findings as the source states them, for the method shown. Binding seen in cells or lysates may run through a third protein. Some binding calls cover weakened binding; strength is not graded here. For part of these data: Where a sequence is shown, tags or fusion partners need not be part of it.

B1: HTATSF1 (TAT-SF1) (protein, UniProt O43719 1-755)
chain: MSGTNLDGNDEFDEQLRMQELYGDGKDGDTQTDAGGEPDSLGQQPTDTPYEWDLDKKAWFPKITEDFIATYQANYGFSNDGASSSTANVEDVHARTAEEPPQEKAPEPTDARKKGEKRKAESGWFHVEEDRNTNVYVSGLPPDITVDEFIQLMSKFGIIMRDPQTEEFKVKLYKDNQGNLKGDGLCCYLKRESVELALKLLDEDEIRGYKLHVEVAKFQLKGEYDASKKKKKCKDYKKKLSMQQKQLDWRPERRAGPSRMRHERVVIIKNMFHPMDFEDDPLVLNEIREDLRVECSKFGQIRKLLLFDRHPDGVASVSFRDPEEADYCIQTLDGRWFGGRQITAQAWDGTTDYQVEETSREREERLRGWEAFLNAPEANRGLRRSDSVSASERAGPSRARHFSEHPSTSKMNAQETATGMAFEEPIDEKKFEKTEDGGEFEEGASENNAKESSPEKEAEEGCPEKESEEGCPKRGFEGSCSQKESEEGNPVRGSEEDSPKKESKKKTLKNDCEENGLAKESEDDLNKESEEEVGPTKESEEDDSEKESDEDCSEKQSEDGSEREFEENGLEKDLDEEGSEKELHENVLDKELEENDSENSEFEDDGSEKVLDEEGSEREFDEDSDEKEEEEDTYEKVFDDESDEKEDEEYADEKGLEAADKKAEEGDADEKLFEESDDKEDEDADGKEVEDADEKLFEDDDSNEKLFDEEEDSSEKLFDDSDERGTLGGFGSVEEGPLSTGSSFILSSDDDDDDI
B2: WTAP, Q15007 1-396 (protein)
chain: MTNEEPLPKKVRLSETDFKVMARDELILRWKQYEAYVQALEGKYTDLNSNDVTGLRESEEKLKQQQQESARRENILVMRLATKEQEMQECTTQIQYLKQVQQPSVAQLRSTMVDPAINLFFLKMKGELEQTKDKLEQAQNELSAWKFTPDSQTGKKLMAKCRMLIQENQELGRQLSQGRIAQLEAELALQKKYSEELKSSQDELNDFIIQLDEEVEGMQSTILVLQQQLKETRQQLAQYQQQQSQASAPSTSRTTASEPVEQSEATSKDCSRLTNGPSNGSSSRQRTSGSGFHREGNTTEDDFPSSPGNGNKSSNSSEERTGRGGSGYVNQLSAGYESVDSPTGSENSLTHQSNDTDSSHDPQEEKAVSGKGNRTVGSRHVQNGLDSSVNVQGSVL

Tests used:
Assay in all cases: co-IP; anti-FLAG M2 beads; 3×FLAG-tagged SPOC domains, full-length or ΔSPOC proteins expressed in HEK293T; lysis in 50 mM Tris-Cl pH 8, 150 mM NaCl, 0.1% Triton with benzonase; elution with 3×FLAG peptide; western blot; performed once
[1] = target: 3×FLAG-NLS-RBM15-SPOC (human) (UniProt Q96T37)
3×FLAG-RBM15 (human) = 3×FLAG-RBM15 (human) (UniProt Q96T37)
[2] = target: 3×FLAG-SHARP (human), Q96T58; conditions: remark: other sources report otherwise

Row | Binder | binding [1] | binding (3×FLAG-RBM15 (human)) | binding [2]
1 | B1 | binds | binds | –
2 | B2 | – | – | no binding
